Laboratory results as given in PMC4336329 (PLoS ONE, 2015).
Hit rate of the full screen: of about 310,000 compounds, about 2,200 (0.71%) showed an effect of 50% or more. Effects have a minus sign here. The list shows a part of the results.

biological target: human ether-à-go-go-related gene (hERG) potassium channel (human, UniProt Q12809); assay: primary screen, population patch clamp on CHO cells stably expressing hERG
Sequence (Q12809 whole entry, looked up): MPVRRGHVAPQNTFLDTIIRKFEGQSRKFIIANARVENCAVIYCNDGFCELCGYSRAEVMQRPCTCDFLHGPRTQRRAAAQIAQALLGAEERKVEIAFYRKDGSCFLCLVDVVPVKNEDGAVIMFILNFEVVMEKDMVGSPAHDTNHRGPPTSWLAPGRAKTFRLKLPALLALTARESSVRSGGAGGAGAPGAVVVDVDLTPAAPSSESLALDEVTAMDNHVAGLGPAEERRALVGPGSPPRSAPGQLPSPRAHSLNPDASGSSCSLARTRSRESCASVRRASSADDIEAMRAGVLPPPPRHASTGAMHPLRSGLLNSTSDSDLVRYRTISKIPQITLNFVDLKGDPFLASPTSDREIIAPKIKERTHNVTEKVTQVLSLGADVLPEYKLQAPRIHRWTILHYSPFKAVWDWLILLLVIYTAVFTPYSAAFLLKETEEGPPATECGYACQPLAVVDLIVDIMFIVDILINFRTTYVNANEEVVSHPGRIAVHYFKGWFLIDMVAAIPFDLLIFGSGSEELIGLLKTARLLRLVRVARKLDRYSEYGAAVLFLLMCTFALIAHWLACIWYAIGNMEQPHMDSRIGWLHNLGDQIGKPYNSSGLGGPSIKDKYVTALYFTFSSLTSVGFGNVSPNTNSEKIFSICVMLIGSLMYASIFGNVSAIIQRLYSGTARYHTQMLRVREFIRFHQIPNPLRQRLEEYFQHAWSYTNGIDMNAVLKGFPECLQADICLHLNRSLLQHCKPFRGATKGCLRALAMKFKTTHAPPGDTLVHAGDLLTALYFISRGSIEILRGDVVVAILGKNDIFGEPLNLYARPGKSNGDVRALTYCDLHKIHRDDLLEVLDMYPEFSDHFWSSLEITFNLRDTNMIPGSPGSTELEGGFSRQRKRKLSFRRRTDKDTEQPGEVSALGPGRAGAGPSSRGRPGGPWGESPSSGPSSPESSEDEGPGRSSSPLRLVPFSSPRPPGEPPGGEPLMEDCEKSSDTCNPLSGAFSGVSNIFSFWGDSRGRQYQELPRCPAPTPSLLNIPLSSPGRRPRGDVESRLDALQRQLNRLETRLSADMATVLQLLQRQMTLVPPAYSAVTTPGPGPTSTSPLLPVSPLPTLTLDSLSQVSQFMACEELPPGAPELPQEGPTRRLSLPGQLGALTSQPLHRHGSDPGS

| SMILES | hERG current change (%, negative = inhibition) at 1uM |
| --- | --- |
| COc1cc(O)c(C(CC(=O)N2CCCCC2)c2ccc3c(c2)OCO3)c(OC)c1 (stereo not shown) | 15.2% |
| Cc1cccc(-c2noc(-c3c(C)noc3C)n2)c1 | 6.8% |
| COc1ccc(C2CC(=O)c3cnc(NC(=O)c4ccccc4)nc3C2)cc1OC (stereo not shown) | 0.969% |
| CC1(C)Cc2c(sc3ncnc(NNC(=S)NCc4ccccc4)c23)CO1 | 11.3% |
| Cc1ccc(S(=O)(=O)NCCN2CCOCC2)c(C)c1.Cl | 10.8% |
| O=C(Nc1ccc2nc(N3CCOCC3)sc2c1)c1ccc(F)cc1 | 4.59% |
| CCOC(=O)CCNC(=O)CNC(=O)OCc1ccccc1 | 10.9% |
| CC(=O)n1cc([C@H]2C=C(C(=O)N3CCN(Cc4ccc5c(c4)OCO5)CC3)O[C@@H](OCc3ccc(CO)cc3)C2)c2ccccc21 | 9.34% |
| N/C(=N\[N+](=O)[O-])N/N=C/c1ccc(O)cc1 | 4.26% |
| Cc1nnc2ccc(-c3cccc(NS(C)(=O)=O)c3)nn12 | 2.86% |
| C=C(C)Cn1c(=O)c2c(nc3n2CC(C)CN3Cc2ccccc2)n(C)c1=O (stereo not shown) | -5.92% |
| O=C1/C(=C/c2cccc([N+](=O)[O-])c2)CCc2ccccc21 | -1.76% |
| COc1cccc(CNC(=O)CCS(=O)(=O)c2ccc3c(c2)NC(=O)CS3)c1 | 12.2% |
| O=C(O)C(=O)O.O=C(c1cccc2ccccc12)N1CCN(Cc2ccccc2F)CC1 | 8.72% |
| CC(=O)N1CCN(c2ccccc2NC(=O)c2cc(Br)ccc2Cl)CC1 | -27% |
| COc1ccc(OCC(=O)NNC(=O)C2CCCO2)cc1 (stereo not shown) | 12.4% |
| O=C(Nc1ccccc1)c1cc(-n2cnnc2)ccc1Cl | 8.64% |
| COc1cccc(NC(=O)CN(c2cccc(C(F)(F)F)c2)S(C)(=O)=O)c1 | 6.28% |
| O=C(O)C1CCCCC1C(=O)Nc1ccc2c(c1)CCC2 (stereo not shown) | -3.73% |
| O=C(CS(=O)(=O)c1c[nH]c2ccccc12)N1CCCCC1 | 17% |
| O=C(NC(C(=O)N1CCCC1C(=O)O)=C1CCCCC1)c1ccccc1 (stereo not shown) | -0.878% |
| COc1ccc(CC(=O)NCC(=O)N/N=C/c2sccc2C)cc1 | 5.04% |

| SMILES | hERG current change (%, negative = inhibition) at 1uM |
| --- | --- |
| CCC1C(=O)N=C(SCC(=O)Nc2ccc(C(=O)OC)cc2)NC1=O (stereo not shown) | 11.5% |
| CC(=O)N1c2ccc(S(=O)(=O)N3CCC(C(=O)N4CCCC(C)C4)CC3)cc2CC1C (stereo not shown) | 3.98% |
| COc1ccc(CCCC(=O)N/N=C\c2cccs2)cc1 | 25.1% |
| COc1ccc(-c2cc(C(=O)O)sc2C)cc1 | 3.33% |
| COc1ccc(CCNC(=O)C2CC(=O)N(c3ccc(C(C)(C)C)cc3)C2)cc1OC (stereo not shown) | 7.77% |
| Cc1ccc(S(=O)(=O)NC(=O)Nn2c(C)nnc2C)cc1 | 24.2% |
| C=CCn1cnc2c(nnn2Cc2ccc(F)cc2)c1=O | 11.5% |
| COCCNC(=O)C(c1ccc(O)cc1)N(C(=O)CCC(=O)Nc1nccs1)c1cccc(C)c1 (stereo not shown) | 19.8% |
| FC(F)(F)c1cc(CCN2C(=S)NC[C@@H]2c2ccccc2)cc(C(F)(F)F)c1 | 12.6% |
| Cc1c(Cl)c([N+](=O)[O-])nn1CC(=O)NCc1cccnc1 | 14.7% |
| O=C(N/N=C/c1cccc2ccccc12)c1ccc(CN2CCOCC2)cc1 | 9.04% |
| Cc1ccc(C(=O)N[C@@H](C)CN2C3=NC[C@H](C(C)C)N3C[C@H]2Cc2ccc(O)cc2)cc1Br | -34.3% |
| O=C1CSC(c2ccccc2)N1c1ccc(F)cc1F (stereo not shown) | 9.55% |
| Cc1c(NC(=O)C(c2ccccc2)c2ccccc2)cccc1C(=O)O | 16.2% |
| O=C(NCCc1ccco1)C(=O)NCCC1CCCCN1S(=O)(=O)c1ccccc1 (stereo not shown) | 3.49% |
| Cc1ccc(NC2=Nc3ccccc3CC2)cc1 | 8.06% |
| CC1(C)CC(=O)C=C(Nc2ccc(S(N)(=O)=O)cc2)C1 | 11.4% |
| Cc1[nH]n(-c2ccc(Cl)cc2)c(=O)c1/C=N/c1nnc(-c2ccccc2)s1 | 21.6% |
| CC(=O)c1c(N2CCN(C)CC2)[nH]c(-c2ccccc2)nc1=S | 6.6% |
| Cc1cccc(C)c1OCC(=O)Nc1cccc(NC(=O)c2ccco2)c1 | 9.09% |
| COc1ccc(NC(=O)C2CCCN2C(=O)NCc2ccccc2)cc1 (stereo not shown) | 10.8% |
